# Laboratory results reported in the supplement of paper PMC4967469.
# The IC50 comes from the fitted curve, where viability falls to half of the control; a limit (>, <) means that the fit lies beyond the doses tested. The AUC spans the tested range (256-fold, ending at the top dose) of the same fit; the more sensitive the line, the further below 1. A top dose marked as inferred was derived from the fitted curves, not read from the paper.
# Compound: CCOc1cc2ncc(C#N)c(Nc3ccc(F)c(Cl)c3)c2cc1NC(=O)/C=C/CN(C)C [EKB-569]
# Experiment: Viability of human cancer cell lines after 72 h of drug (GDSC screen)
# Settings: top dose inferred
# Description: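 Human cancer cell lines in 384-well plates, medium with 10% serum, drug for 72 h over a 256-fold dose range (nine 2-fold or five 4-fold steps up to the top dose). Adherent lines were fixed and stained with the nucleic acid dye Syto60, suspension lines read with resazurin; signal relative to control wells, capped at 0 and 100%. One two-parameter sigmoid per drug and line, fitted in a mixed model over all curves with the slope shared within a line.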
Cell Line,AUC,IC50 [nM]
"TE-11 (oesophagus, adherent, top dose 2.5 µM)",0.958,> 2500
"NCI-H2171 (small cell lung carcinoma, suspension, top dose 2.5 µM)",0.946,> 2500
"MLMA (hairy cell leukaemia, semi-adherent, top dose 2.5 µM)",0.755,854
"NCI-H2023 (lung adenocarcinoma, adherent, top dose 2.5 µM)",0.98,> 2500
"BT-483 (breast, adherent, top dose 20 µM)",0.926,> 20000
"FADU (head and neck, adherent, top dose 2.5 µM)",0.892,> 2500
"SKN-3 (head and neck, adherent, top dose 2.5 µM)",0.96,> 2500
"A2780 (ovary, semi-adherent, top dose 2.5 µM)",0.636,376
"KP-4 (pancreas, adherent, top dose 2.5 µM)",0.94,> 2500
"YAPC (pancreas, adherent, top dose 2.5 µM)",0.954,> 2500
"HCC1395 (breast, adherent, top dose 20 µM)",0.892,> 20000
"NAMALWA (Burkitt lymphoma, suspension, top dose 2.5 µM)",0.719,579
"NH-12 (neuroblastoma, adherent, top dose 2.5 µM)",0.938,> 2500
"SK-PN-DW (Ewing sarcoma, adherent, top dose 2.5 µM)",0.923,> 2500
"NEC8 (testis, adherent, top dose 2.5 µM)",0.988,> 2500
"ML-1 (thyroid, adherent, top dose 2.5 µM)",0.843,2220
"MHH-PREB-1 (B-cell leukaemia, suspension, top dose 2.5 µM)",0.988,> 2500
"DBTRG-05MG (glioma, adherent, top dose 2.5 µM)",0.865,> 2500
"HCC1954 (breast, adherent, top dose 2.5 µM)",0.756,987
"HDQ-P1 (breast, adherent, top dose 2.5 µM)",0.952,> 2500
"H2722 (mesothelioma, adherent, top dose 2.5 µM)",0.961,> 2500

Cell Line,AUC,IC50 [nM]
"SW1463 (large intestine, adherent, top dose 2.5 µM)",0.565,266
"NCI-H1793 (lung adenocarcinoma, adherent, top dose 2.5 µM)",0.968,> 2500
"ME-1 (acute myeloid leukaemia, suspension, top dose 2.5 µM)",0.865,2490
"NOMO-1 (acute myeloid leukaemia, suspension, top dose 2.5 µM)",0.783,1200
"Hs940-T (melanoma, adherent, top dose 2.5 µM)",0.892,> 2500
"SH-4 (melanoma, adherent, top dose 2.5 µM)",0.919,> 2500
"OVMIU (ovary, adherent, top dose 2.5 µM)",0.379,66.6
"SW1417 (large intestine, adherent, top dose 2.5 µM)",0.967,> 2500
"NCI-H2110 (non-small cell lung carcinoma, adherent, top dose 2.5 µM)",0.887,> 2500
"KYSE-510 (oesophagus, adherent, top dose 2.5 µM)",0.959,> 2500
"SHP-77 (small cell lung carcinoma, semi-adherent, top dose 2.5 µM)",0.873,1960
"SK-N-AS (neuroblastoma, adherent, top dose 2.5 µM)",0.927,> 2500
"JHU-022 (head and neck, adherent, top dose 2.5 µM)",0.921,> 2500
"DK-MG (glioma, adherent, top dose 2.5 µM)",0.669,584
"D-502MG (glioma, adherent, top dose 2.5 µM)",0.806,2260
"BE2-M17 (neuroblastoma, adherent, top dose 2.5 µM)",0.981,> 2500
"A427 (non-small cell lung carcinoma, adherent, top dose 2.5 µM)",0.941,> 2500
"NCI-H1568 (lung adenocarcinoma, adherent, top dose 2.5 µM)",0.831,2160
"WSU-DLCL2 (B-cell lymphoma, suspension, top dose 2.5 µM)",0.916,> 2500
"MKN1 (stomach, adherent, top dose 2.5 µM)",0.867,2470
"SK-HEP-1 (liver, adherent, top dose 2.5 µM)",0.986,> 2500

Cell Line,AUC,IC50 [nM]
"TT (thyroid, adherent, top dose 2.5 µM)",0.982,> 2500
"KYSE-50 (oesophagus, adherent, top dose 2.5 µM)",0.922,> 2500
"NCI-H3122 (lung adenocarcinoma, adherent, top dose 2.5 µM)",0.899,> 2500
"CGTH-W-1 (thyroid, adherent, top dose 2.5 µM)",0.951,> 2500
"NCI-H2030 (lung adenocarcinoma, adherent, top dose 2.5 µM)",0.767,1050
"A253 (head and neck, adherent, top dose 2.5 µM)",0.85,1820
"MMAC-SF (melanoma, adherent, top dose 2.5 µM)",0.971,> 2500
"SIMA (neuroblastoma, adherent, top dose 2.5 µM)",0.958,> 2500
"BB49-HNC (head and neck, adherent, top dose 2.5 µM)",0.97,> 2500
"NCI-H1993 (lung adenocarcinoma, adherent, top dose 2.5 µM)",0.849,> 2500
"YMB-1-E (breast, adherent, top dose 2.5 µM)",0.975,> 2500
"ETK-1 (biliary tract, adherent, top dose 2.5 µM)",0.834,1940
"KU-19-19 (bladder, adherent, top dose 2.5 µM)",0.985,> 2500
"CHSA0011 (chondrosarcoma, adherent, top dose 2.5 µM)",0.94,> 2500
"RCC-AB (kidney, adherent, top dose 2.5 µM)",0.59,297
"TOV-21G (ovary, adherent, top dose 2.5 µM)",0.817,1560
"LOUCY (T-cell lymphoblastic leukaemia, suspension, top dose 20 µM)",0.191,191
"WM1552C (melanoma, adherent, top dose 2.5 µM)",0.831,1590
"HA7-RCC (kidney, adherent, top dose 2.5 µM)",0.916,> 2500
"NB10 (neuroblastoma, adherent, top dose 2.5 µM)",0.974,> 2500
"OACM5-1 (oesophagus, semi-adherent, top dose 2.5 µM)",0.953,> 2500

Cell Line,AUC,IC50 [nM]
"SAS (head and neck, adherent, top dose 2.5 µM)",0.782,1170
"NCI-H2081 (small cell lung carcinoma, suspension, top dose 2.5 µM)",0.977,> 2500
"H2591 (mesothelioma, adherent, top dose 2.5 µM)",0.97,> 2500
"NCI-H446 (small cell lung carcinoma, semi-adherent, top dose 2.5 µM)",0.907,> 2500
"MHH-NB-11 (neuroblastoma, adherent, top dose 2.5 µM)",0.917,> 2500
"SU-DHL-5 (B-cell lymphoma, suspension, top dose 2.5 µM)",0.852,1240
"GAMG (glioma, adherent, top dose 2.5 µM)",0.899,> 2500
"SNB75 (glioma, adherent, top dose 2.5 µM)",0.96,> 2500
"PCI-6A (head and neck, adherent, top dose 2.5 µM)",0.805,1230
"ES-2 (ovary, adherent, top dose 2.5 µM)",0.963,> 2500
"ESS-1 (endometrium, adherent, top dose 2.5 µM)",0.968,> 2500
"LS-123 (large intestine, adherent, top dose 2.5 µM)",0.776,1350
"RO82-W-1 (thyroid, adherent, top dose 2.5 µM)",0.982,> 2500
"OSC-19 (head and neck, adherent, top dose 2.5 µM)",0.866,2400
"PCI-15A (head and neck, adherent, top dose 2.5 µM)",0.818,1420
"A704 (kidney, adherent, top dose 2.5 µM)",0.989,> 2500
"RKO (large intestine, adherent, top dose 20 µM)",0.587,2120
"COLO-829 (melanoma, adherent, top dose 2.5 µM)",0.96,> 2500
